# Source: the supplement of paper PMC9446081
# The whole screen tested about 39,000 compounds, of which about 220 (0.56%) showed activity. Some of the results follow.
# Test system: Escherichia coli K-12 BW25113
# Assay: relative growth (OD600 normalised to plate interquartile mean) (fraction); higher = less growth inhibition, active = 0.2 or less
# Conditions: 50 µM; LB; incubation time: overnight (16-24 h)
# 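Note: static incubation at 37 °C against the wild-type strain, values averaged over two biological replicates.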
row,SMILES,relative growth
1,C[C@H]1CN([C@@H](C)CO)C(=O)c2ccccc2-c2ccccc2CO[C@@H]1CN(C)Cc1ccc(Cl)c(Cl)c1,inactive: 0.98
2,C[C@H](CO)N1C[C@H](C)[C@@H](CN(C)C(=O)C2CCCCC2)OCCCC[C@H](C)Oc2ccc(NS(=O)(=O)c3ccc(F)cc3)cc2C1=O,inactive: 1
3,COc1ccc(S(=O)(=O)Nc2cccc3c2O[C@@H](CN(C)Cc2ccc(Oc4ccccc4)cc2)[C@H](C)CN([C@@H](C)CO)C3=O)cc1,inactive: 1.02
4,C[C@H]1CN([C@@H](C)CO)C(=O)c2cc(-c3cccc(C#N)c3)cnc2O[C@H]1CN(C)C(=O)c1cnccn1,inactive: 1.02
5,C[C@H]1CN([C@@H](C)CO)C(=O)CCCn2nncc2CO[C@@H]1CN(C)S(=O)(=O)c1ccc(Cl)cc1,inactive: 0.995
6,COC(=O)C1=CC(CCCO)=C[C@@H](c2ccc(CN3CCCC3)cc2)N(Cc2sc3ccccc3c2Cl)C=C1C(=O)OC,inactive: 0.983
7,Cc1cncc2cccc(S(=O)(=O)N3CC[C@H](N(C/C=C/c4ccc(Br)cc4)C/C=C/c4ccc(Br)cc4)C3)c12,inactive: 1.03
8,C[C@@H]1CN([C@@H](C)CO)S(=O)(=O)c2ccc(-c3cccnc3)cc2O[C@H]1CN(C)C(=O)NC1CCCCC1,inactive: 0.914
9,COc1ccc(C#Cc2cnc3c(c2)C(=O)N([C@@H](C)CO)C[C@H](C)[C@H](CN(C)CC2CCOCC2)O3)cc1,inactive: 1.02
10,O=C(O)c1ccc(N[C@@H]2O[C@H](CO)[C@@H](O)[C@H](O)[C@H]2O)cc1,inactive: 1.03
11,COc1ccccc1-c1ccc2c(c1)O[C@@H](CN(C)C(=O)c1ccncc1)[C@H](C)CN([C@H](C)CO)S2(=O)=O,inactive: 0.978
12,C[C@H](CO)N1C[C@H](C)[C@@H](CN(C)S(=O)(=O)c2ccccc2)Oc2ncc(-c3ccncc3)cc2C1=O,inactive: 0.994
13,Cc1noc(C)c1NC(=O)N[C@H]1C=C[C@@H](CC(=O)NCCCN(C)C)O[C@H]1CO,inactive: 0.987
14,C[C@H]1CN([C@@H](C)CO)C(=O)c2cccc(NS(=O)(=O)c3cn(C)cn3)c2O[C@@H]1CN(C)C(=O)Nc1ccccc1,inactive: 0.993
15,C=c1ccc(C)c2c1=C(O)C(=O)N2,inactive: 0.978
16,O[C@@H]1CCCC[C@H]1O,inactive: 1.02
17,NCc1csc2c1CCCC2,inactive: 0.975
18,C[C@@H]1CN([C@H](C)CO)C(=O)CCCn2cc(nn2)CO[C@H]1CN(C)C(=O)C1CC1,inactive: 1.02
19,C[C@H]1CN([C@@H](C)CO)C(=O)Cc2cc(NC(=O)c3ccncc3)ccc2O[C@@H]1CN(C)S(=O)(=O)c1ccc(F)cc1,inactive: 0.978
20,C[C@@H]1CN([C@@H](C)CO)C(=O)c2cc(NC(=O)C3CCCCC3)ccc2O[C@@H](C)CCCCO[C@H]1CN(C)C(=O)Cc1ccccc1,inactive: 1

row,SMILES,relative growth
1,CC(C)CC#Cc1ccc2c(c1)O[C@@H](CN(C)C(=O)c1cnccn1)[C@H](C)CN([C@H](C)CO)S2(=O)=O,inactive: 1
2,COc1cccc(-c2ccc3c(c2)O[C@H](CN(C)C(=O)C2CCOCC2)[C@@H](C)CN([C@@H](C)CO)S3(=O)=O)c1,inactive: 0.997
3,C[C@@H]1CN([C@@H](C)CO)C(=O)c2cc(NC(=O)Nc3cccc4ccccc34)ccc2O[C@@H](C)CCCCO[C@H]1CN(C)S(=O)(=O)c1ccc(F)cc1,inactive: 1.02
4,C[C@@H]1CN([C@H](C)CO)C(=O)Cc2cc(NC(=O)C3CC3)ccc2O[C@@H]1CN(C)S(=O)(=O)c1cn(C)cn1,inactive: 0.955
5,COc1ccc(OC)c(S(=O)(=O)NCCO)c1,inactive: 1.03
6,C[C@H]1CN([C@@H](C)CO)C(=O)c2cc(NS(=O)(=O)c3cn(C)cn3)ccc2O[C@H]1CN(C)S(=O)(=O)c1ccc(Cl)cc1,inactive: 1.01
7,Cc1noc(C)c1S(=O)(=O)Nc1ccc2c(c1)C(=O)N([C@H](C)CO)C[C@@H](C)[C@H](CN(C)S(C)(=O)=O)O2,inactive: 0.981
8,C[C@H]1CCCCO[C@@H](CN(C)Cc2ccc3c(c2)OCO3)[C@@H](C)CN([C@@H](C)CO)C(=O)c2cc(NC(=O)Nc3ccc(F)cc3)ccc2O1,inactive: 0.935
9,CO[C@H]1CN(C)C(=O)c2cc(NC(C)=O)ccc2OC[C@@H](C)N(S(=O)(=O)c2cn(C)cn2)C[C@@H]1C,inactive: 1.01
10,C[C@H]1CN([C@@H](C)CO)C(=O)Cc2cc(NS(=O)(=O)c3ccc(F)cc3)ccc2O[C@@H]1CN(C)S(=O)(=O)c1ccc(F)cc1,inactive: 1.04
11,C[C@H]1CN([C@@H](C)CO)C(=O)c2cc(NC(=O)CCN3CCOCC3)ccc2O[C@H]1CN(C)Cc1ccccc1,inactive: 0.976
12,C[C@@H]1CN([C@H](C)CO)C(=O)c2cccc(NS(=O)(=O)c3cccs3)c2O[C@@H]1CN(C)Cc1ccc(-c2ccccc2)cc1,inactive: 1.01
13,C[C@@H]1CN([C@@H](C)CO)C(=O)Cc2cc(NC(=O)Nc3ccccc3)ccc2O[C@@H]1CN(C)Cc1ccc(-c2ccccc2)cc1,inactive: 1.02
14,CO[C@H]1CN(C)C(=O)c2cc(NC(=O)CC(F)(F)F)ccc2OC[C@H](C)N(S(=O)(=O)c2cn(C)cn2)C[C@H]1C,inactive: 0.964
15,OCC1OC(Oc2ccc(O)cc2)C(O)C(O)C1O (stereo not given),inactive: 0.993
16,O=C(C[C@@H]1C=C[C@@H](NC(=O)CN2CCOCC2)[C@@H](CO)O1)NC1CCCCC1,inactive: 0.978
17,Cc1noc(C)c1S(=O)(=O)Nc1ccc2c(c1)CC(=O)N([C@H](C)CO)C[C@H](C)[C@@H](CN(C)Cc1ccc(Oc3ccccc3)cc1)O2,inactive: 0.996
18,C[C@@H]1CCCCO[C@@H](CN(C)Cc2ccncc2)[C@@H](C)CN([C@H](C)CO)C(=O)c2cc(NC(=O)Cc3ccccc3)ccc2O1,inactive: 1
19,CNC[C@@H]1OCCCC[C@H](C)Oc2ccc(NC(=O)c3ccncc3)cc2C(=O)N([C@H](C)CO)C[C@@H]1C,inactive: 0.99
20,C[C@H](CO)N1C[C@H](C)[C@H](CN(C)S(=O)(=O)c2ccccc2)OCCCC[C@H](C)Oc2ccc(NC(=O)CCC(F)(F)F)cc2C1=O,inactive: 1.01
